Experimental data reported in paper PMC10907643.
Results are given in words; binding and its absence hold for the method and conditions named. For some assays here: In cells and extracts the contact can be indirect. Some binding calls cover weakened binding; strength is not graded here.

Amino acid sequences for entries named in this document (tags omitted). A change or cut given only in a name is not applied to a line headed by its entry. Chains listed by the source or under a name are the forms on record and can include a tag or linker. Residues count along the entry.
UniProt Q76MJ5, residues 35-926: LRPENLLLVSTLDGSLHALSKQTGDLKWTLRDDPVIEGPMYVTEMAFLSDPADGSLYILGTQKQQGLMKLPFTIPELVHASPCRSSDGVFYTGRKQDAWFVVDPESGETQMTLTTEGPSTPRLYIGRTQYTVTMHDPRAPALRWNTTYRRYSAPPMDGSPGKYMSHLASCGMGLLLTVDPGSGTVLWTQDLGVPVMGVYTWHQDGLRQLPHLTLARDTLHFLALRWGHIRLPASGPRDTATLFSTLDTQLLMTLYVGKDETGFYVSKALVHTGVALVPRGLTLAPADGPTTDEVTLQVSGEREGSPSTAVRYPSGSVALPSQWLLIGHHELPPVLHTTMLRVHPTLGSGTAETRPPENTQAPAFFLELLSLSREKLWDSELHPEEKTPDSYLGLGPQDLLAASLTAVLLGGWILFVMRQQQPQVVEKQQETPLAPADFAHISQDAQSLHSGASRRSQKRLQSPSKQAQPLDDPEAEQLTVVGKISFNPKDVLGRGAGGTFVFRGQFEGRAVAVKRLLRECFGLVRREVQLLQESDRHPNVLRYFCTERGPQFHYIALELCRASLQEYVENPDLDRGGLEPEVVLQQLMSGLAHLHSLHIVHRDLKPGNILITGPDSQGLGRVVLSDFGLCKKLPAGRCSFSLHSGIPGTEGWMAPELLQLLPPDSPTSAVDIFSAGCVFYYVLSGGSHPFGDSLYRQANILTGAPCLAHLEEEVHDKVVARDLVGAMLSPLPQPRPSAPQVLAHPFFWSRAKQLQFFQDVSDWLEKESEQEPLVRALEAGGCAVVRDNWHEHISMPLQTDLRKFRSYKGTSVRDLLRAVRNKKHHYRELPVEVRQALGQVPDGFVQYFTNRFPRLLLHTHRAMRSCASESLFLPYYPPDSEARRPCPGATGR
AGR2 wild type (overexpressed in HEK293T cells) (O95994, residues 21-175): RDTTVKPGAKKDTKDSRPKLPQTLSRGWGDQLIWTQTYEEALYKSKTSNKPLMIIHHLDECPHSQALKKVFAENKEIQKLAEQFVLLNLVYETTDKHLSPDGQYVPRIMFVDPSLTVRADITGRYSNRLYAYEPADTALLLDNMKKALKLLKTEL
AGR2 C81S (O95994, form named): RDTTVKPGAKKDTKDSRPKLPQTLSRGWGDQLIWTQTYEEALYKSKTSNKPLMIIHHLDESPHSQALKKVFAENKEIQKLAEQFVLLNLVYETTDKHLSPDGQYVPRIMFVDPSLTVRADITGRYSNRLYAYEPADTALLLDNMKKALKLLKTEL
AGR2 E60A (O95994, form named): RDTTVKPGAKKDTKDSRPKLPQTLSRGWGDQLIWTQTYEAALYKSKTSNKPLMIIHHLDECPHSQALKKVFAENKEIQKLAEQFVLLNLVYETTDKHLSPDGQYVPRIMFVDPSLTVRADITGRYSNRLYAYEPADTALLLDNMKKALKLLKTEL
AGR2 H117Y (O95994, form named): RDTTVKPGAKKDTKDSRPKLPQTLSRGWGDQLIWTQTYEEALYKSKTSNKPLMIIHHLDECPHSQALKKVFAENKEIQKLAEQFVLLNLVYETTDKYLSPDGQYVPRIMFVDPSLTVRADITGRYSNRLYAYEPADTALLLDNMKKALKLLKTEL
AGR2 K64A (O95994, form named): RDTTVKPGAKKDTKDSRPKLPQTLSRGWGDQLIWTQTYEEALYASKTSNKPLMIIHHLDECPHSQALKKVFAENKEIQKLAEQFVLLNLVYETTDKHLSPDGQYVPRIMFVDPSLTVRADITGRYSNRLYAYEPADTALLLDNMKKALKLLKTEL

Legend:
[1] = target: IRE1β-Avi (biotinylated by co-expressed BirA) (human) (UniProt Q76MJ5); test: co-IP; competition co-IP: IRE1β-Avi and IRE1β-FLAG in equal molar amounts with BirA, with or without AGR2 (wild type or mutant; ~2.5:1, or 1:1 to ~4:1 AGR2:IRE1β cDNA) in HEK293T; streptavidin beads, E1A buffer, 1 h at 4 °C; blots with anti-AGR2, anti-FLAG and streptavidin
[2] = target: IRE1β-FLAG (doxycycline-inducible, in Calu-1 ERN1-/- cells) (human) (UniProt Q76MJ5); test: SEC; Superose6 Increase 10/300 GL, cleared lysates of Calu-1 ERN1-/- IRE1β-FLAG cells (16 h doxycycline) with AGR2 or control protein; 150 mM NaCl, 25 mM Tris pH 8.0, 0.5 mM dodecylmaltoside, 5 mM β-mercaptoethanol; fractions blotted with anti-FLAG and anti-AGR2
[3] = target: IRE1β-Avi (biotinylated by co-expressed BirA) (human) (UniProt Q76MJ5); test: co-IP; streptavidin-bead precipitation of BirA-biotinylated IRE1α-Avi or IRE1β-Avi from HEK293T lysates co-transfected with AGR2 (~2.5:1 AGR2:IRE1 cDNA); E1A buffer (1% NP-40, 250 mM NaCl, 20 mM HEPES pH 7.9); 1 h at 4 °C; blot for AGR2; BirA omitted as control

Substance	binding [1]	binding [2]	binding [3]
AGR2 C81S (from UniProt O95994 21-175)	no binding		
AGR2 E60A (from UniProt O95994 21-175)	binds		
AGR2 H117Y (from UniProt O95994 21-175)	no binding		
AGR2 K64A (from UniProt O95994 21-175)	binds		
AGR2 wild type (constitutive lentiviral transgene in Calu-1 cells) (from UniProt O95994 21-175)		binds	
AGR2 wild type (overexpressed in HEK293T cells) (from UniProt O95994 21-175)	binds		binds
IRE1β-FLAG (transiently expressed in HEK293T cells) (from UniProt Q76MJ5 35-926)	binds		
